# According to paper PMC9911399, “Two distinct binding modes provide the RNA-binding protein RbFox with extraordinary sequence specificity”:
# Numbering of substitutions follows the chain as printed; changes in the protein carry UniProt numbers. This is one part of the list.
# T1: RBFOX1 RRM RbFoxmut (Fox-RRM*) (Homo sapiens, UniProt Q9NWB1 109-208, R118D;E147R;N151S;E152T)
# T1 sequence: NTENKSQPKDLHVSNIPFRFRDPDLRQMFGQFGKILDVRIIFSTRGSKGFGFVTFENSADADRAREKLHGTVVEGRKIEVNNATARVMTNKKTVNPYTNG
# B1: GCAAGAG (DNA:RNA)
# RNA: GGGAGACCGGAAUUCAGAUUGUCCGCAAGAGUUAAAUCCCGUCGUAGCCACCA
# DNA 1: CAATCTGAATTCCGGTCTCCC
# DNA 2: TGGTGGCTACGACGGGATT
# B2: ACCUGCC (DNA:RNA)
# RNA: B1 RNA with G25A, A27C, A28U, A30C, G31C
# DNA 1: CAATCTGAATTCCGGTCTCCC
# DNA 2: TGGTGGCTACGACGGGATT
# B3: CAAUACG (DNA:RNA)
# RNA: B1 RNA with G25C, C26A, A28U, G29A, A30C
# DNA 1: CAATCTGAATTCCGGTCTCCC
# DNA 2: TGGTGGCTACGACGGGATT
# B4: AGCGCUC (DNA:RNA)
# RNA: GGGAGACCGGAAUUCAGAUUGUCCAGCGCUCUUAAAUCCCGUCGUAGCCACCA
# DNA 1: CAATCTGAATTCCGGTCTCCC
# DNA 2: TGGTGGCTACGACGGGATT
# B5: UUCCACU (DNA:RNA)
# RNA: B4 RNA with A25U, G26U, G28C, C29A, U30C, C31U
# DNA 1: CAATCTGAATTCCGGTCTCCC
# DNA 2: TGGTGGCTACGACGGGATT
# B6: CUAAAGA (DNA:RNA)
# RNA: B1 RNA with G25C, C26U, G29A, A30G, G31A
# DNA 1: CAATCTGAATTCCGGTCTCCC
# DNA 2: TGGTGGCTACGACGGGATT
# B7: GCUUCCA (DNA:RNA)
# RNA: B1 RNA with A27U, A28U, G29C, A30C, G31A
# DNA 1: CAATCTGAATTCCGGTCTCCC
# DNA 2: TGGTGGCTACGACGGGATT
# B8: AGUUGCG (DNA:RNA)
# RNA: B4 RNA with C27U, G28U, C29G, U30C, C31G
# DNA 1: CAATCTGAATTCCGGTCTCCC
# DNA 2: TGGTGGCTACGACGGGATT
# B9: UCGGGGG (DNA:RNA)
# RNA: B1 RNA with G25U, A27G, A28G, A30G
# DNA 1: CAATCTGAATTCCGGTCTCCC
# DNA 2: TGGTGGCTACGACGGGATT
# Target: T1, RBFOX1 RRM RbFoxmut (Fox-RRM*)
# Experiment: EMSA; HiTS-Eq, 1 nM pool, 10 min; buffer printed only for the single-RNA assays: 10 mM Tris pH 7.5, 150 mM NaCl, 3.4 mM EDTA, 0.001% NP-40, 30 C
# Details: tags: His6 N-terminal (pET28a); label: 5' 32P
# Method in brief: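 Purified wild-type or mutant RbFox RRM at increasing concentrations was equilibrated with 1 nM of 5′-radiolabelled RNA carrying 7 randomized nucleotides for 10 min in 50 µL. Unbound RNA was separated by 8% native PAGE and sequenced. Relative association constants came from read-count changes of each RNA species compared with the control reaction, normalised to the cognate motif.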
row,Binder,binding signal
1,B1,0.0911 KA relative to UGCAUGU
2,B2,0.196 KA relative to UGCAUGU
3,B3,0.0751 KA relative to UGCAUGU
4,B4,0.0471 KA relative to UGCAUGU
5,B5,0.0766 KA relative to UGCAUGU
6,B6,0.0917 KA relative to UGCAUGU
7,B7,0.0831 KA relative to UGCAUGU
8,B8,0.141 KA relative to UGCAUGU
9,B9,0.087 KA relative to UGCAUGU
